For this test, the system named is L1210 leukemia ip in BDF1 mice, survival T/C. Description: NCI In Vivo Anticancer Drug Screen. Data for tumor model L1210 Leukemia (intraperitoneal) in B6D2F1 (BDF1) mice. The settings on record: endpoint: mean survival time, higher = longer survival.

The record followed here is PubChem BioAssay AID248 (DTP/NCI, 2004).

Inconclusive results and toxic doses are left out. For part of its entries the source gives two or more results. This is not the full list of results. An entry can have further records. Results that share an entry are repeated measurements in other runs, samples, wells, individuals or studies. Brackets tell where a record comes from. Letters hold for one entry only.

Regarding `CC1CC(C)(O)CC(C(O)CC2CC(=O)NC(=O)C2)C1=O` (stereo not given), the T/C (dose: 0.6 mg/kg/injection, schedule: Q01DX Z (ip), vehicle: other) is 118 % of control and 164 % of control.

Turning to `O=[N+]([O-])c1cccc(OCCOc2ccccc2)c1`, the T/C (dose: 50.0 mg/kg/injection, schedule: Q01DX009 (ip), vehicle: saline with Tween-80) was 96 % of control and 161 % of control.

Regarding `O=C1C=CC(=O)O1` (tested in a mixture with another compound), for the setting “dose: 200.0 mg/kg/injection, schedule: Q01DX009 (ip), vehicle: saline”, the T/C is 98 % of control, 124 % of control [sample A] and 111 % of control, 115 % of control [sample B] and 111 % of control, 115 % of control [sample C].

In the case of `O=C(CCBr)N1CCN(C(=O)CCBr)CC1`, the T/C (dose: 200.0 mg/kg/injection, schedule: Q04DX003 (ip), vehicle: saline) is 115 % of control and 170 % of control.

For `Clc1ccc(NC2=NCCO2)cc1Cl`, the T/C (dose: 100.0 mg/kg/injection, schedule: Q04DX003 (ip), vehicle: saline with Tween-80) is 92 % of control and 150 % of control.

As for `O=C1C(N2CCOCC2)=C(N2CC2)C(=O)C(N2CCOCC2)=C1N1CC1`, for the setting “dose: 6.0 mg/kg/injection, schedule: Q01DX009 (ip), vehicle: saline”, the T/C is 119 % of control and 164 % of control.

Take `O=C[C@@H](CO)O[C@H](C=O)n1cnc2c(=O)[nH]cnc21`: for the setting “dose: 55.0 mg/kg/injection, schedule: Q01DX009 (ip), vehicle: saline”, the T/C was 122 % of control and 153 % of control.

For the compound `COc1cc2c3c(c4ccc(OC)c(OC)c4c2cc1OC)CN1CCC[C@@H]1C3`, the T/C was 114 % of control, 116 % of control, 152 % of control (dose: 10.0 mg/kg/injection, schedule: Q03DX Z (ip), vehicle: water); 122 % of control and 155 % of control (dose: 20.0 mg/kg/injection, schedule: Q02DX Z (ip), vehicle: water); 117 % of control and 151 % of control (dose: 20.0 mg/kg/injection, schedule: Q03DX Z (ip), vehicle: water).
